Measured values: the supplement of paper PMC11417369
± gives the standard deviation of the averaged measurements. The list shows a part of the results.

tested on: PfAP2-LT AP2 domain (GST-tagged); test: gcPBM binding intensity (ln(normalized median fluorescence intensity)); higher = stronger DNA binding
Method in brief: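 GST-tagged P. falciparum DNA-binding domains produced in E. coli were incubated for 1 h on an Agilent 4 × 180k array of primer-extended double-stranded 36-bp intergenic genomic probes with negative controls. Binding intensity is the highest Masliner-normalised natural-log median intensity across replicate spots of either probe orientation, with bound protein detected by Alexa488 anti-GST antibody at 488 nm.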

| Sequence | gcPBM binding intensity (ln) |
| --- | --- |
| AAACAATTATTATATTGTACATATATTACATTATTA [XGTACX_site1089] | 8.69 ± 0.45 |
| TTATATTTTATTATGTGTACGTATATAATATAATAT [XGTACX_site6230] | 8.72 ± 0.4 |
| AATCAAAAAGGAACCATAATATTACAACTATATATA [CACACA_negctrl_site381] | 8.74 ± 0.45 |
| TAAAACTTAATGTTTTGTACATATTCTTCTTTATTT [XGTACX_site4271] | 8.6 ± 0.57 |
| CATTTTTTGCTTTCAACACACATACAATATATATAA [CACACA_site6127] | 8.81 ± 0.4 |
| AAGGATCACGCACAAACACACATATTTATATTTATA [CACACA_site6405] | 9.14 ± 0.45 |
| CTTTATTTTTTATACACACACAATATGTATATATAT [CACACA_site3550] | 9.17 ± 0.33 |
| TAAGGATATATATATTCACACACACCGGGAAATATA [CACACA_site8020] | 9.55 ± 0.34 |
| AAACAAATATATATATGTACTTATAAAAAAAAAAAT [XGTACX_site2211] | 8.75 ± 0.51 |
| TTTTTATTTTTTGAAACACACACAAAAAAAATGATA [CACACA_site8564] | 8.68 ± 0.35 |
| TTTTTGTATTCTTCTTCTTCCAGACTACATTATGTC [XGTACX_negctrl_site235] | 8.89 ± 0.42 |
| ATATATTTAAAATTGACACACATTTAATGACATTTT [CACACA_site3112] | 8.76 ± 0.43 |
| TATATATGGAAAAGAGTCAAAAAGAAAAAAGAAAAA [CACACA_negctrl_site1374] | 8.61 ± 0.54 |
| TATGAAATATTTATACACAGAACTTCATAATTTTCA [TGCATGCA_negctrl_site509] | 8.49 ± 0.37 |
| TCTTTAACAAGTTAAACACACATACCTATATACATA [CACACA_site7237] | 8.79 ± 0.38 |
| TGGTGATATACGAAATGTACGCAAATCACAAAATAA [XGTACX_site8836] | 8.84 ± 0.41 |
| CGCGTATAACGAAATTGTACAAAAAAAATTAAACAT [XGTACX_site6813] | 9.01 ± 0.45 |
| AAATAAAAATTAAAAAAATAGAAACGAATTGAATGC [TGCATGCA_negctrl_site365] | 8.79 ± 0.49 |
| AATTAAACTTTGTTTTTGTTTTTTTTTTTTATATTT [CACACA_negctrl_site1316] | 8.45 ± 0.64 |
| ATATATATAAATATATGTACATAAATATATTTGTAA [XGTACX_site6715] | 8.88 ± 0.44 |
| TAATATATATAACATATACACACGTTCATATATATA [CACACA_site462] | 8.93 ± 0.32 |
| TATTTGCAATATTATACACACATTAGATATTGCAAA [CACACA_site7565] | 8.85 ± 0.29 |
| TACAAAATGTTATATCAATATAGATAAAAAAATGAA [XGTACX_negctrl_site285] | 8.69 ± 0.54 |

| Sequence | gcPBM binding intensity (ln) |
| --- | --- |
| AAAAAAAAAAAAAAATGTACATATATAATATTTATA [XGTACX_site5117] | 8.54 ± 0.57 |
| AACAAATTAATTCTAGTGCAGGACGTATTTGTGTAC [GTGCAC_site9907] | 8.88 ± 0.36 |
| TCAACGATCACTCGGTGTACTATAAATGAGAGAATT [XGTACX_site1820] | 8.7 ± 0.44 |
| AATTTTGAGATGTGGTGTACACAAAATTAGTTAGAC [XGTACX_site7033] | 9.09 ± 0.45 |
| AACAATTTTTAAAGGTGTACAATATGTATATAAGAA [XGTACX_site254] | 8.83 ± 0.51 |
| ATTAAATTAAAATAATGTACTTAATACTTTTGCTTA [XGTACX_site8404] | 8.46 ± 0.46 |
| ATATATATATATAAAGGTACACATTTATTAAATATA [XGTACX_site7102] | 8.72 ± 0.38 |
| TAATTTTTTTTTCTTGTACACACTATTTTATAATTT [CACACA_site4078] | 8.9 ± 0.45 |
| ATCTATGATATATACACACACATGTATAAATAAATA [CACACA_site7012] | 9.32 ± 0.37 |
| AATAGTATTCACAAAGTTTTATATAATAAATATAAA [GTGCAC_negctrl_site154] | 8.45 ± 0.52 |
| ATAAACAATTAACAAACATGCAAATTTTAAATGTGT [TGCATGCA_site919] | 8.95 ± 0.39 |
| ATTTATTTGTTTGTTTTTTTTACGATTTTTATTTTT [CACACA_negctrl_site1138] | 8.96 ± 0.47 |
| CGTATTTATATAATTACACACCATATTTTAATTATT [CACACA_site5960] | 8.77 ± 0.38 |
| TTTTTTTTTTTTTTTTGTACATATTTTTAAACTATA [XGTACX_site2897] | 8.42 ± 0.54 |
| TTTTTTTTTTGATGTTGTACATATATATTATATATA [XGTACX_site6377] | 8.71 ± 0.36 |
| AGATATATGGACGACTCACACATTTAAATTCATTCA [CACACA_site6047] | 8.87 ± 0.45 |
| CTTTCATATGTTTTAACACACACGCATATATTATAT [CACACA_site8615] | 9.36 ± 0.33 |
| TTTTTTTTTTTGATTTGTACACAAAAAAAATATATG [XGTACX_site4547] | 8.37 ± 0.52 |
| ATATTTATATATATGTGTACATATAGAAACATAAAA [XGTACX_site4355] | 8.79 ± 0.42 |
| CTTCTTATTTTCTAATGTACGTACAAATCATTTATA [XGTACX_site2176] | 8.74 ± 0.45 |
| TGTCCTTATGGGCACACACACATATAAGAAATTTAA [CACACA_site3187] | 9.13 ± 0.49 |
| AAAAACAAACTGTGCATGCACCAAAAAAAAAAAAAA | 8.98 ± 0.4 |
| TAAACATACATATACACACACACACCCACACCCACA [CACACA_site492] | 10.3 ± 0.18 |

| Sequence | gcPBM binding intensity (ln) |
| --- | --- |
| TTTTTTTTTTTAATTTGTACGAATCTTTTTATTTTA [XGTACX_site4516] | 8.7 ± 0.59 |
| AGAAATGAAATATACACACATACATATATACATATA [CACACA_site4033] | 9.2 ± 0.34 |
| ACCCTCATATTATAGACACACACAAAAAAAATAAAA [CACACA_site7941] | 9.24 ± 0.54 |
| TAAATACACCCTAGACGTACATAAAAATTTAGTATG [XGTACX_site2512] | 8.9 ± 0.42 |
| ATTAATAATGAGTTATGTACATACATATTTTAAGAT [XGTACX_site7543] | 8.81 ± 0.42 |
| AAATGTATAATATTTTCACACACAAGAAAAAAGAAA [CACACA_site9195] | 9.08 ± 0.41 |
| GCCAATAAAGATGTGGTGCATTATATATATATATAT | 9.38 ± 0.12 |
| TATCGAGCACGGCGTGTGGAGTTACAAAGAGGAGAA [CACACA_negctrl_site40] | 9.04 ± 0.63 |
| ATTTTTTTATAAAATTTTTATATATTATATAAATAT [GTGCAC_negctrl_site163] | 8.31 ± 0.5 |
| TAAAAATAGTATACAACACACGAGGGAAAATAAAGT [CACACA_site3837] | 9.42 ± 0.37 |
| ATAATATAAATATGCACACAAATTATTACCCAAAAA [CACACA_site2524] | 9.03 ± 0.41 |
| GTTATATTCCTACAGAGTACATAAAAATGCACATCA [XGTACX_site1948] | 8.62 ± 0.4 |
| AAATATAATATATGCACACATACATACAGATATATA [CACACA_site4235] | 9.1 ± 0.38 |
| ATAAATATAGGACACACACACATATTATATATATAT [CACACA_site5658] | 9.88 ± 0.3 |
| CACGCGAACATACATACACACACATATATATATATG [CACACA_site7951] | 9.69 ± 0.35 |
| CAAAATATATATACCACACACACATACCTCTATTTG [CACACA_site1853] | 9.775 ± 0.078 |
| ATATATTTTTTCTTAACACACATATATAAAATAAAA [CACACA_site3500] | 8.41 ± 0.41 |
| TATATATATATATACACACACACACCGATATATATA [CACACA_site8813] | 10 ± 0.11 |
| TATATAAAAAAACAAAGTACATGTTCTTAATCATTT [XGTACX_site8446] | 8.63 ± 0.39 |
| AAATGAACAAGTGGCACACACACATCATAACTAATT [CACACA_site5730] | 9.57 ± 0.39 |
| TATAATATAAGGATCACACACAAACACCCATATATA [CACACA_site4468] | 9.56 ± 0.18 |
| TCCATAAAAATGGATACACACACATAATATATATAT [CACACA_site9207] | 9.36 ± 0.37 |
| TTAATAACAAAATAAACACACATATATAAATACCCA [CACACA_site4960] | 9.11 ± 0.4 |

| Sequence | gcPBM binding intensity (ln) |
| --- | --- |
| CATACATACATACATACACACATACCTATATTTATA [CACACA_site6769] | 9.38 ± 0.33 |
| CTAGCAAATACATACACACACACACCGATACAGATA [CACACA_site5853] | 9.8 ± 0.18 |
| ATATATACATATATTACACACTTCTTATTCTAAGAA [CACACA_site3022] | 8.77 ± 0.44 |
| TATTTCATGATACAATGTACATGTATATATGATACC [XGTACX_site5057] | 8.88 ± 0.3 |
| AATAATATATATTACACACGCATCGTTCATTTATTT [CACACA_site2391] | 9.34 ± 0.37 |
| TTTGAAATAAGCAAATGTACATTATTATTAAATATA [XGTACX_site6158] | 8.45 ± 0.4 |
| TTGCCCATTTAATTAACACACAAATGTTTATATTCT [CACACA_site6488] | 9.01 ± 0.49 |
| TGTATGATAACTATAGTGCATTTGGTAATTTTTCCA | 8.6 ± 0.48 |
| TTCACATACAGAAACACACACATATATATAAATTAA [CACACA_site3705] | 9.17 ± 0.34 |
| AAAAAAAAAAAAAAAAAAAAAAAAAAAAAAAAAAAG [CACACA_negctrl_site292] | 8.705 ± 0.035 |
| TCAAGAGTTATATAAACACACATACATACAGACATA [CACACA_site6998] | 9.11 ± 0.3 |
| TAAGAAATTGAGCGCACACATACATCTGTGGGATGG [CACACA_site1548] | 9.39 ± 0.38 |
| ATTGTGGATATTCTTACACACAAATTTATTTATAAA [CACACA_site7267] | 8.63 ± 0.4 |
| TTTTTTTCTTCTTTTCTCTTAAAAATATTGAATATT [CACACA_negctrl_site1762] | 8.27 ± 0.58 |
| ATGTAAATATTTTGTATGCACTTTGATGCATCTTTT | 8.93 ± 0.43 |
| AGTATTCATAAAAATACACACATGGAAAAATAAAAT [CACACA_site1454] | 9.27 ± 0.52 |
| ATATATATATAATAAGTGCAAAAAAAAGAAAAAAAT | 8.99 ± 0.47 |
| GTTTTCTAGTGGGGGTGTACATATTTATATTTAATA [XGTACX_site8378] | 9.88 ± 0.16 |
| AGCAAAAAAAAAAAAAAAAAAAAAATAATAAAAAAT [TGCATGCA_negctrl_site202] | 8.48 ± 0.82 |
| CATATATTAATATGTACACACATTAATAAAAAAAAA [CACACA_site7504] | 8.88 ± 0.46 |
